# Laboratory results as given in publication PMC4336329 (PLoS ONE, 2015).
# The campaign covered roughly 310,000 compounds. About 2,200 (0.71%) showed an effect of 50% or more. The effect is printed as a negative number. This is one part of the list.
# Biological target: human ether-à-go-go-related gene (hERG) potassium channel (human, UniProt Q12809)
# Assay: primary screen, population patch clamp on CHO cells stably expressing hERG
# Sequence of human ether-à-go-go-related gene (hERG) potassium channel (Q12809 whole entry, looked up): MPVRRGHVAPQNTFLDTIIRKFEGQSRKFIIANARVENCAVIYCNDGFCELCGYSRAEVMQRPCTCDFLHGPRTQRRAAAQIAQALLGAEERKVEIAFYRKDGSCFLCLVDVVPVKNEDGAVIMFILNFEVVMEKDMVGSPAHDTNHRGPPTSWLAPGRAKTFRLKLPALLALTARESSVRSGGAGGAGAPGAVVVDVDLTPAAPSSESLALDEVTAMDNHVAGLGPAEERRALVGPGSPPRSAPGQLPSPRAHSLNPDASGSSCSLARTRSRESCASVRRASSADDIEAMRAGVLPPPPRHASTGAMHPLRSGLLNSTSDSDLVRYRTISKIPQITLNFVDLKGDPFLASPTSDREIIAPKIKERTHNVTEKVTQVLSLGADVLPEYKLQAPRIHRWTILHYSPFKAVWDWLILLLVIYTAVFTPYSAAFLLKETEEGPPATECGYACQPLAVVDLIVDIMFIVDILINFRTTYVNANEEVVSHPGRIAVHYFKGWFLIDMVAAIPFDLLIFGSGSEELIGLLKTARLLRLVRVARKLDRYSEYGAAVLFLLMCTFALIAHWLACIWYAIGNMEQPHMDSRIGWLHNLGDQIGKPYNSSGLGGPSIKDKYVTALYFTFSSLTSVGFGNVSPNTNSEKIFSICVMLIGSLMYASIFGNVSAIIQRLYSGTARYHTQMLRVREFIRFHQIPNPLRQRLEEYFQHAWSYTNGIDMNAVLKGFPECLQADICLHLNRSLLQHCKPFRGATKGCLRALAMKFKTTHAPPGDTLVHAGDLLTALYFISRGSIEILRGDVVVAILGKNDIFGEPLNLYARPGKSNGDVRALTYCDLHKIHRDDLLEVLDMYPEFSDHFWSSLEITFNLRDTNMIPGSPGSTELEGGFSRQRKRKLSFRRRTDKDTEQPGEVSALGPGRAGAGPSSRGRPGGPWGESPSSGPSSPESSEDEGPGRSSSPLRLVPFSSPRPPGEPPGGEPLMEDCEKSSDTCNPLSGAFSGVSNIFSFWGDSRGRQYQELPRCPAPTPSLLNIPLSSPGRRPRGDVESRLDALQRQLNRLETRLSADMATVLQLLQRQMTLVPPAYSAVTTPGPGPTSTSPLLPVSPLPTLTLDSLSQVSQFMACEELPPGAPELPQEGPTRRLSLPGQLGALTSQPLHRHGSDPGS
row,Compound,"hERG current change (%, negative = inhibition) at 1uM"
1,CCCCNc1c(N2CCN(C(=O)OCC)CC2)c(=O)c1=O,6.16%
2,CCOC(=O)N1CCC(NC(=O)C(NS(=O)(=O)c2cccc3nsnc23)c2ccccc2)CC1 (stereo not drawn),0.671%
3,N#Cc1c(N)nc(SCc2ccccn2)c(C#N)c1-c1cccs1,9.69%
4,COc1cc(CNC2CCCC2)cc(Cl)c1OCc1ccccc1Cl.Cl,3.43%
5,COc1ccc(NC(=S)N(Cc2ccc(N(C)C)cc2)Cc2ccco2)cc1,-6.36%
6,COc1cc(OC)cc(-c2nnc(SCC(=O)Nc3ccc(C(=O)O)cc3)s2)c1,18%
7,Clc1ccc(-c2c[n+](Cc3ccc(Br)cc3)c3n2CCCCC3)cc1.[Br-],-29%
8,CCn1nccc1C(=O)Nc1cc(Cl)ccc1Cl,0.897%
9,COC(=O)c1ccccc1NC(=O)c1ccc2c(c1)C(=O)N(Cc1ccco1)C2=O,-12.4%
10,Cc1cc(OCC(=O)N[C@@H](Cc2c[nH]c3ccccc23)C(=O)O)c2c(C)c(C)c(=O)oc2c1,-5.73%
11,CCN(C(=O)COC(=O)c1cccc(NS(=O)(=O)c2ccc(F)c(F)c2)c1)C1CCS(=O)(=O)C1 (stereo not drawn),14.3%
12,CC(C(=O)Oc1ccc2c(c1)OCO2)N1C(=O)c2ccccc2C1=O (stereo not drawn),-1.93%
13,COc1ccc(CCNC(=O)C(=O)c2c(C)[nH]c3ccccc23)cc1,11%
14,COC(=O)C1=C(C)N(C(C)c2ccccc2)C(=O)/C1=C\c1ccco1 (stereo not drawn),11.4%
15,CCCc1nc(-c2cc3ccc(C)cc3[nH]c2=O)no1,8.99%
16,CCC1CCCCN1CCCNC(=O)CCC(=O)N1CC(C)Oc2ccccc21 (stereo not drawn),7.01%
17,O=c1[nH]nc(SCc2nnc(-c3ccc([N+](=O)[O-])cc3)o2)n1C1CCCCC1,8.98%
18,O=C(CCS(=O)(=O)c1ccc(F)cc1)Nc1nc(-c2ccncc2)cs1,16.6%
19,CCC(C)(C(=O)Nc1ccccc1C)N(C(=O)CNC(C)=O)c1ccc(C)cc1 (stereo not drawn),11.5%
20,O=C(c1cccs1)c1ccc(-c2cccs2)s1,1.41%
21,CC(=O)C1C(c2ccccc2)c2c(noc2C)CC1(C)O (stereo not drawn),11.1%
22,CCOC(=O)CC(NC(=O)Cn1nnc(-c2ccccc2C)n1)c1ccc(OC)cc1 (stereo not drawn),-0.402%

row,Compound,"hERG current change (%, negative = inhibition) at 1uM"
1,CCCCc1nc(S(=O)(=O)c2ccc(Cl)cc2)c(N2CCOCC2)o1,-31.1%
2,Cc1cc(-c2csc(N)n2)c(C)n1CCc1ccccc1.Cl,11.6%
3,COc1cc2c(cc1NCc1ccc3c(c1)OCO3)oc1ccccc12,18%
4,Nc1nc(SCc2nc3scc(-c4ccccc4)c3c(=O)[nH]2)n[nH]1,16.7%
5,Cc1ccc2c(c1)C(=O)C(=O)N2CCCOc1ccccc1,6.2%
6,O=c1cc(CSc2ccccn2)c2ccccc2[nH]1,1.13%
7,CCOC(=O)c1cnn(-c2nc(-c3ccccc3)cs2)c1C(F)(F)F,4.82%
8,O=C(NC1CC1)c1ccc(N2CCCCC2)c([N+](=O)[O-])c1,-12.3%
9,Cc1ccc(NC(=O)NC(=O)COc2ccc(Cl)cc2Cl)c(C)c1,9.4%
10,Cc1ccc(C)c(S(=O)(=O)N2CCCOC2CNC(=O)C(=O)NCc2ccc3c(c2)OCO3)c1 (stereo not drawn),9.55%
11,CC(C)(C)c1ccc(C(=O)NC(CC(=O)O)c2ccc(OC3CCCC3)cc2)cc1 (stereo not drawn),17.4%
12,CC12CCC3C(CC=C4CC5(CCC43C)OCCO5)C1CCC2=O (stereo not drawn),6.8%
13,O=C(N/N=C/c1ccccn1)c1ccc([N+](=O)[O-])cc1Cl,16.5%
14,Oc1c(C(c2ccco2)N2CCOCC2)sc2ncnn12 (stereo not drawn),10.4%
15,Cc1ccc2[nH]c(CNC(=O)c3ccccc3F)cc2c1,8.54%
16,Cc1oc(-c2ccccc2)nc1C(=O)OCC(=O)NC(C)c1ccccc1 (stereo not drawn),9.25%
17,Nc1cc(=O)n(Cc2ccccc2)c(=O)n1-c1ccc(F)cc1,11.5%
18,Cc1ccc(S(=O)(=O)Nc2cc(C(=O)N3CCOCC3)ccc2N2CCCCC2)cc1,-2.73%
19,O=C(COc1ccccc1)Nc1ccc(S(=O)(=O)N2CCOCC2)cc1,19.7%
20,CC1CCN(C(=O)c2ccc3c(c2)OCCO3)CC1,13.9%
21,OCCC1CN(Cc2ccc3nsnc3c2)CCN1C1CCCCC1 (stereo not drawn),-4.23%
22,Clc1ccsc1-c1ccc2ccccc2n1,10.7%

row,Compound,"hERG current change (%, negative = inhibition) at 1uM"
1,O=C(NCCS(=O)(=O)N1CCN(c2ccccc2F)CC1)c1cccs1,5.26%
2,Clc1ccc(C2CC(c3ccccc3)Nc3ncnn32)cc1 (stereo not drawn),-38.3%
3,CC(C)(C)OC(=O)N1CCN(C(=O)c2[nH]cnc2C(=O)Nc2cccc(Cl)c2)CC1,12.3%
4,O=C(NNC1OC(CO)C(O)C(O)C1O)c1cccnc1 (stereo not drawn),17.7%
5,Cc1ccc(-c2noc(C3CCCN(S(=O)(=O)c4ccc5ccccc5c4)C3)n2)o1 (stereo not drawn),12.4%
6,O=C(N/N=C/c1cccs1)C(=O)N1CCCC1,7.16%
7,CCCN(CC(=O)Nc1ccccc1C)C(=O)C1CC(=O)N(c2cccc(C)c2C)C1 (stereo not drawn),7.3%
8,COc1ccc(C(=O)NCCc2c[nH]c3ccccc23)cc1[N+](=O)[O-],10.9%
9,Cc1cc(Nc2ccccc2Cl)c2ccccc2n1,-9.92%
10,CCOC(NC(=O)c1ccccc1)C(NC(=O)c1ccccc1)OCC (stereo not drawn),5.07%
11,O=C(CCCn1c(=O)[nH]c2cc(Cl)ccc2c1=O)N1CCC2(CC1)OCCO2,2.48%
12,O=C(NC1CCN(S(=O)(=O)c2ccccc2F)CC1)c1cccnc1,8.55%
13,CN(c1ccccc1)c1nc(N)c([N+](=O)[O-])c(NCc2ccccc2)n1,17.3%
14,O=C(COC(=O)c1ccco1)Nc1nc2ccc([N+](=O)[O-])cc2s1,3.4%
15,Cc1ccc(CS(=O)(=O)c2ncn[nH]2)cc1,21%
16,CN1CCN(CC(=O)Nc2cccc([N+](=O)[O-])c2)CC1,5.95%
17,Cc1cccc(NC(=S)N(Cc2cccc(Br)c2)CC2CCC(C(=O)O)CC2)c1 (stereo not drawn),11.9%
18,CC1=CC(=O)CC(C)(C)C1(O)/C=C/C(C)=C/C(=O)O (stereo not drawn),9.74%
19,C[N+]1(CN2C(=O)C3C4C=CC(C4)C3C2=O)CCCCC1.[I-] (stereo not drawn),12.3%
20,O=C(NNc1ccccc1C(F)(F)F)c1sccc1Br,13.4%
21,OC[C@H](O)[C@H](O)[C@@H](O)[C@@H](O)[C@@H]1SC(c2ccccc2)=NN1c1ccccc1,9.58%
22,CC(C)[C@@H](CO)NC(=O)c1ccc2c3n(nc2c1)-c1ccc(Cl)cc1CO3,5.84%

row,Compound,"hERG current change (%, negative = inhibition) at 1uM"
1,Cc1cc2cc(C)c(NCCNC(=O)c3cccc(F)c3)nc2cc1C,13.5%
2,COc1cccc(Cn2cccc(NC(=O)Nc3cccc(C#N)c3)c2=O)c1,8.57%
3,S=C(NC1CC1)N1CCN(c2ccc(Cl)cc2)CC1,10.2%
4,CC(=O)N[C@@H](Cc1c[nH]c2ccccc12)C(=O)OCC(=O)Nc1ccc(Cl)c(S(=O)(=O)N(C)C)c1,6.7%
5,CCOC(=O)C(C(=O)OCC)C1CCS(=O)(=O)C1 (stereo not drawn),13.8%
6,CC1CC(C)CN(C(=O)C2CCCN(S(=O)(=O)c3cccc4nonc34)C2)C1 (stereo not drawn),0.606%
7,N#Cc1nc(-c2ccc(OCc3ccccc3)cc2)oc1NCCCN1CCOCC1,17.2%
8,O=C1c2ccccc2C(=O)N1CCCCSc1nnnn1-c1ccccc1,-19.8%
9,Cl.Oc1ccc(C2NCc3ccccc3-n3cccc32)cc1Cl (stereo not drawn),-0.359%
10,COCCN(C(=O)COC(=O)c1cc2ccccc2cc1O)c1c(N)n(Cc2ccccc2)c(=O)[nH]c1=O,1.18%
11,O=C(O)c1ccc(N/N=C/c2cccc(C(F)(F)F)c2)cc1,16.7%
12,Cc1cccc(C(=O)Nc2ccccc2C(=O)Nc2ccc(C(=O)O)cc2)c1,19.9%
13,CCOC(=O)N1CCN(c2nnnn2-c2ccccc2)CC1,5.83%
14,Cc1cc(C)nc(SCC(=O)Nc2ncc(Cc3cccc(Cl)c3Cl)s2)n1,10.4%
15,COC(=O)NNC(=O)COc1ccc2ccccc2c1Br,8.65%
16,COc1ccc(OC)c(CCNC(=O)CCC(=O)N2CCOc3ccc(C)cc32)c1,-6.5%
17,COc1ccc(OC)c(NC(=O)CSc2nnc(CNc3ccc(C)cc3C)o2)c1,13.5%
18,CC(/C=C/c1ccc2c(c1)OCO2)=N\NC(=O)COc1ccccc1C,-11.9%
19,COc1ccc(C(=O)OCc2c(F)cccc2Cl)cc1S(=O)(=O)N1CCOCC1,6.64%
20,O=S(=O)(/N=C(/c1ccccc1)N1CCOCC1)c1ccc(Br)cc1,8.5%
21,CCC(=O)N1CCc2cc(S(=O)(=O)NCCC(=O)NC3CCCc4ccccc43)ccc21 (stereo not drawn),10.3%
